Laboratory results as given in the supplement of paper PMC5499739.
In all, about 16,000 sequences were measured (“Z-score”: median about -0.37, highest 2% from about 3.2 on). This is one part of the list.

system: RBM10 RRM1-ZnF (GST-tagged construct); experiment: RNAcompete 7-mer binding Z-score; higher = stronger binding preference
In short: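 GST-tagged RBM10 constructs (20 pmol) and a designed pool of 241 399 RNAs up to 41 nt (1.5 nmol) were allowed to bind for 30 min at 4°C in 1 ml Hepes pH 7.8 buffer with glutathione Sepharose beads. After four 2-min washes at 4°C, bound RNA was identified by microarray hybridisation. Enrichment was scored per heptamer motif as a one-sided Z-score across the probes containing it.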

| Sequence | RNAcompete 7-mer binding Z-score |
| --- | --- |
| UACUACA | -0.47 |
| AGGGGCC | 0.722 |
| UUUAAAU | -0.639 |
| CUACACA | -0.535 |
| UUCAGUA | -0.402 |
| CUUGGUG | 0.904 |
| AGGCAGU | 0.316 |
| UGAACUA | -0.331 |
| CUCGGGU | 0.768 |
| UCAACAG | -0.288 |
| UCAGUAA | -0.461 |
| GUAACAA | -0.0187 |
| GCUUCUC | -0.678 |
| GAAAUUG | 0.358 |
| AGCACCG | -0.201 |
| UAACAUC | -0.584 |
| CAUUUAA | -0.821 |
| CAUUAAU | -0.668 |
| CUUUAAU | -0.802 |
| AGGUAAG | 2.32 |
| UACACCU | -0.607 |
| GCAAAGC | -0.0902 |
| UAGCCCG | -0.334 |

| Sequence | RNAcompete 7-mer binding Z-score |
| --- | --- |
| GGCAGAU | 0.794 |
| UAUAUUG | -0.308 |
| UCAUGCA | -0.646 |
| AUGGGGC | 2.81 |
| CUGCUUG | -0.727 |
| AUCCCGG | -0.513 |
| GAGGAAG | 3.26 |
| GAGCCGG | 0.465 |
| CUCGUUU | -0.896 |
| AUUAAGC | -0.636 |
| CGGUGUC | 0.365 |
| GUCAAGA | -0.0187 |
| UUUGUAA | -0.496 |
| GAUGACA | 0.365 |
| UACCUUC | -0.896 |
| GCGGACC | 0.381 |
| GUAGUCG | 0.352 |
| GGCGGCU | 0.465 |
| GCGCAAU | -0.47 |
| AAUUGGU | 1.28 |
| UGGUAGG | 2.98 |
| GUAACGG | 1.68 |
| CCUGUAU | -0.85 |

| Sequence | RNAcompete 7-mer binding Z-score |
| --- | --- |
| ACUAUUU | -0.938 |
| CCAGCAG | -0.275 |
| UAUGGGG | 3.4 |
| AACACAG | 0.0528 |
| GCCGAUG | -0.123 |
| UUAGGAG | 2.09 |
| UGUUUAA | -0.444 |
| AAUAUGG | 1.09 |
| ACGAACU | -0.672 |
| ACGCCUC | -0.678 |
| UAGCGUA | -0.207 |
| UUGGUGG | 2.48 |
| GUUGCUG | 0.196 |
| AAAAAUA | -0.412 |
| GUAGUGA | 0.946 |
| GACAUAG | 0.53 |
| CCGAUUC | -0.815 |
| UAGACGU | -0.178 |
| CAGAGUA | 0.0983 |
| UUACUAC | -0.707 |
| AAGAACU | -0.308 |
| ACGAAGA | -0.344 |
| CGGCUGA | 0.196 |

| Sequence | RNAcompete 7-mer binding Z-score |
| --- | --- |
| CGAAUCA | -0.305 |
| UGAGUAA | 0.287 |
| AUCAUUG | -0.532 |
| UCCGGUU | -0.0577 |
| GACACCG | -0.451 |
| AGAAGAA | 1 |
| AGACAAA | -0.165 |
| CUGAUCA | -0.448 |
| CCUGACU | -0.698 |
| GAAGUCG | 0.43 |
| UCUCCUU | -0.655 |
| UAGUCUU | -0.847 |
| ACAGGGU | 2.94 |
| CCUCGCC | -0.441 |
| GUUCCCG | -0.555 |
| CUCACCA | -0.665 |
| CAAGCUU | -0.967 |
| CGGGAGU | 1.67 |
| GAGAGAU | 0.69 |
| AUGGUUU | 1.85 |
| GUAAGCA | 0.322 |
| CUGCCAC | -0.688 |
| UACGGAU | 0.784 |

| Sequence | RNAcompete 7-mer binding Z-score |
| --- | --- |
| AGAAUUG | 0.365 |
| CUAUAAA | -0.681 |
| UGCAUUU | -0.828 |
| AUCUAGA | -0.548 |
| UCAUGGU | 0.0528 |
| CCGCGGC | -0.194 |
| AGAGCCA | -0.691 |
| AGCCUCG | -0.62 |
| UAGAUCG | -0.158 |
| UUACAAA | -0.305 |
| UUGCUGG | 0.105 |
| AUUGUCC | -0.717 |
| ACUGACC | -0.73 |
| ACGGCUG | 0.102 |
| AGGUCAG | 1.02 |
| GUAUGAU | 0.225 |
| CAUCGCA | -0.483 |
| CCAUUAA | -0.941 |
| UCGUCGA | -0.36 |
| GAGGAAC | 1.66 |
| UCUCUAA | -0.74 |
| CUUCGUA | -0.678 |
| GUAAAGC | 0.3 |

| Sequence | RNAcompete 7-mer binding Z-score |
| --- | --- |
| GAAGAAU | 0.43 |
| GAUGCUA | -0.292 |
| CUCCACG | -0.6 |
| UGCGUUG | 0.15 |
| AUCGCGC | -0.539 |
| GCGAGGC | 1.16 |
| GUUCAGC | -0.366 |
| UCCAAAU | -0.694 |
| GCAAUGU | 0.166 |
| GGACUUG | 0.498 |
| GGACGUU | 0.53 |
| UGAGCCC | -0.207 |
| UUCAUGG | -0.035 |
| CCCCUGG | 0.0365 |
| GAUUGAU | 0.27 |
| GCAAAUG | 0.202 |
| GCGACAU | -0.106 |
| CGGACGU | 0.16 |
| GGCUUCA | -0.444 |
| UCAGCAC | -0.435 |
| CCCCAAA | -0.6 |
| CCGCGUC | -0.594 |
| GUGGCCC | 0.345 |

| Sequence | RNAcompete 7-mer binding Z-score |
| --- | --- |
| CUGGAAG | 0.794 |
| AAGGUAC | 1.45 |
| UCCUGAG | -0.412 |
| CGUCUAC | -0.678 |
| GCUCACU | -0.844 |
| GAGUAAU | 0.056 |
| CUAUUCG | -0.893 |
| GAAGUAG | 1.17 |
| UGAUUCA | -0.604 |
| CCUUAGU | -0.776 |
| CCAGUAA | -0.629 |
| UUACCCA | -0.73 |
| CAGUUUU | -0.87 |
| AAUUUCC | -0.74 |
| UGGGUCG | 2.09 |
| AGUGGAU | 2.35 |
| ACAAUCC | -0.74 |
| CCCAUGA | -0.584 |
| GUCGAAG | 0.732 |
| AGAAGGU | 3.26 |
| UUAUCAA | -0.707 |
| AGAAUCA | -0.334 |
| GGGAGGA | 3.47 |

| Sequence | RNAcompete 7-mer binding Z-score |
| --- | --- |
| UUGCCAA | -0.737 |
| CUACUAA | -0.665 |
| CAUGGAC | 0.309 |
| GUCAAGC | -0.116 |
| AGAACUA | -0.561 |
| CUAUGUG | -0.279 |
| GGAGUAG | 2.93 |
| GUGUAAU | 0.111 |
| CCUGUUG | -0.701 |
| GAUUGCG | 0.218 |
| UUUCAAC | -0.792 |
| UCCGAUC | -0.746 |
| UGUGCUC | -0.409 |
| AGUUUAU | -0.535 |
| GAGCCUC | -0.789 |
| UCAUAUG | -0.363 |
| AUACCCC | -0.613 |
| GUCACGU | -0.295 |
| CGGGCGA | 1.29 |
| UGCGAUU | -0.578 |
| CGAUAAA | -0.409 |
| GUGAUGC | 0.836 |
